Some of the results follow. The energies were worked out here from pooled read counts, against the library average; single values are noisy.
Molecular target: T1, Pho4 (S. cerevisiae) (UniProt P07270)
T1 sequence: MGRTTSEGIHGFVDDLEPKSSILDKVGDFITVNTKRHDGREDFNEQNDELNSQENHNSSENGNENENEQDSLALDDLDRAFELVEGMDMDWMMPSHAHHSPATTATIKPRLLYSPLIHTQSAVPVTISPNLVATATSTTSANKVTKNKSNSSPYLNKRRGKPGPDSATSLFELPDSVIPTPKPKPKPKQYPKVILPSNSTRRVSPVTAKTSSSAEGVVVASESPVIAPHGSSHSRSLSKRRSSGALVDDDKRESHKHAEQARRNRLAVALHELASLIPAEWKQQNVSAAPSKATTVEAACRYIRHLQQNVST
Experiment: relative binding free energy (BET-seq); higher = weaker binding
Conditions: reference: library average

Sequence	relative binding free energy
GGTTGCACGTGTCTGG	0.11 kcal/mol
TTAAACACGTGTGTGT	0.07 kcal/mol
TATTACACGTGTAAGA	0.14 kcal/mol
TTTGTCACGTGTCCGT	0.11 kcal/mol
AATTGCACGTGGTCAT	-0.11 kcal/mol
TGGCGCACGTGTGGGG	-0.05 kcal/mol
GTGGTCACGTGTGGTC	0.12 kcal/mol
ATGTTCACGTGTTAGT	0.27 kcal/mol
ATATACACGTGGCTGG	0.06 kcal/mol
CATTCCACGTGGTGTT	0.03 kcal/mol
AGCGTCACGTGGTCTT	-0.03 kcal/mol
TGTTGCACGTGTTCGG	-0.11 kcal/mol
TATGTCACGTGTGTGG	0.07 kcal/mol
GATTGCACGTGTCAGG	0.11 kcal/mol
TATCACACGTGTTGTA	0.03 kcal/mol
TTGGCCACGTGACGGT	0.1 kcal/mol
TCGTTCACGTGGGATA	0.13 kcal/mol
TCAGGCACGTGTTTAT	-0.14 kcal/mol
TTAGTCACGTGTTCCG	0.12 kcal/mol
GTTGTCACGTGATCTG	0.27 kcal/mol
CGGTGCACGTGGGCCT	-0.12 kcal/mol
AATATCACGTGTGGGT	0.05 kcal/mol
AGGGGCACGTGCGGCA	-0.21 kcal/mol

Sequence	relative binding free energy
CGGTTCACGTGATGTC	0.41 kcal/mol
AGTTTCACGTGTATCG	0.23 kcal/mol
AGCAGCACGTGGTGGA	-0.08 kcal/mol
AGTTACACGTGTCATG	0.16 kcal/mol
GGGCTCACGTGATTTG	0.34 kcal/mol
TTTTTCACGTGCATGA	0.27 kcal/mol
TTGAACACGTGAATTT	0.35 kcal/mol
TGTTGCACGTGTATCG	0 kcal/mol
GGGTTCACGTGACATG	0.29 kcal/mol
GCTGGCACGTGGAAGG	0.02 kcal/mol
TGTAGCACGTGGTTCG	-0.15 kcal/mol
CAATTCACGTGTGGCG	0.37 kcal/mol
CGGTGCACGTGGGAAT	-0.01 kcal/mol
ATTGGCACGTGTTACG	-0.12 kcal/mol
TGTGGCACGTGGTACT	-0.28 kcal/mol
GTGTGCACGTGTTTTT	0.09 kcal/mol
GGAAGCACGTGTGTGC	-0.05 kcal/mol
ATAAGCACGTGATGGT	-0.01 kcal/mol
GATTTCACGTGTGGCG	0.3 kcal/mol
ATTAACACGTGTTCTG	-0.08 kcal/mol
GGTTTCACGTGGTGCT	0.25 kcal/mol
CGTTTCACGTGTTCGA	0.21 kcal/mol
TTTAACACGTGGAGAG	0.03 kcal/mol

Sequence	relative binding free energy
TTAAGCACGTGATCGT	-0.08 kcal/mol
TGTGACACGTGAAGAT	0.36 kcal/mol
GTATACACGTGATAGG	0.16 kcal/mol
ATTTTCACGTGTTTTT	0.23 kcal/mol
CAGTGCACGTGATATG	0.18 kcal/mol
ATACGCACGTGTGTGG	-0.17 kcal/mol
GCAGGCACGTGTGAGA	0.05 kcal/mol
GTATGCACGTGGTCGG	-0.1 kcal/mol
GTTTTCACGTGGACGA	0.39 kcal/mol
AGGGGCACGTGATGGC	-0.02 kcal/mol
GGTAACACGTGTTAAT	0.06 kcal/mol
GTCTGCACGTGGTAGT	0.14 kcal/mol
AAGGTCACGTGGCAGT	-0.07 kcal/mol
TGATACACGTGGGAGA	0.04 kcal/mol
GGGCTCACGTGTCGGT	0.23 kcal/mol
GAAGTCACGTGGGTGT	-0.01 kcal/mol
AATAACACGTGTAAGT	0.12 kcal/mol
TATATCACGTGGATTG	0.14 kcal/mol
ATGTGCACGTGTACGT	-0.03 kcal/mol
CATGACACGTGTTGTT	0.1 kcal/mol
GGGAGCACGTGGGAAG	0.02 kcal/mol
GAGCTCACGTGGTGTA	0.23 kcal/mol
ATCATCACGTGGTGGT	0.03 kcal/mol

Sequence	relative binding free energy
CTGGCCACGTGGAGGT	-0.06 kcal/mol
TAGTTCACGTGCCGTT	0.36 kcal/mol
TGGTCCACGTGGGATA	-0.07 kcal/mol
TTGACCACGTGCAGGG	-0.02 kcal/mol
TTGCTCACGTGTTGAT	0.17 kcal/mol
GTGAGCACGTGGTTAT	-0.12 kcal/mol
CGGGCCACGTGGGAGG	-0.25 kcal/mol
TAAGGCACGTGCAGTT	-0.15 kcal/mol
GTTGTCACGTGTAGAC	0.11 kcal/mol
GCTTACACGTGTATTA	0.35 kcal/mol
TCAATCACGTGGTGAG	0.24 kcal/mol
CTGGGCACGTGGCATG	-0.26 kcal/mol
CACGGCACGTGGAGGG	-0.17 kcal/mol
TTTCTCACGTGTATGT	0.24 kcal/mol
GTGGCCACGTGGGGAG	-0.06 kcal/mol
CGGGTCACGTGAGTAA	0.39 kcal/mol
GGATCCACGTGGGAGT	-0.04 kcal/mol
GTTGGCACGTGTTTAA	-0.07 kcal/mol
AAAGACACGTGTGGGA	0.09 kcal/mol
GGGGCCACGTGGGATG	0 kcal/mol
CGTAACACGTGGCGGG	-0.06 kcal/mol
GTTGTCACGTGTTGCA	0.31 kcal/mol
TGTTTCACGTGGAGGC	0.32 kcal/mol

Sequence	relative binding free energy
GGCGTCACGTGAGGAT	0.34 kcal/mol
CAAGGCACGTGGGTGA	-0.16 kcal/mol
GTATTCACGTGGTACT	0.15 kcal/mol
TAGATCACGTGCGTAG	0.12 kcal/mol
ATAAACACGTGGGGTT	-0.08 kcal/mol
AGGAACACGTGGTTAT	0.07 kcal/mol
TCTATCACGTGGTGTA	-0.01 kcal/mol
GTTATCACGTGAGGCT	0.43 kcal/mol
GGAGGCACGTGAGAGG	0.19 kcal/mol
GTTGCCACGTGTGTGC	-0.03 kcal/mol
CAAGGCACGTGGGAAG	-0.05 kcal/mol
ACGTTCACGTGTATAG	0.29 kcal/mol
GCGCGCACGTGGGTTT	-0.15 kcal/mol
AAGCGCACGTGGGTAG	-0.21 kcal/mol
AGATACACGTGTTTGA	0.09 kcal/mol
TGTGTCACGTGTCCAG	0.06 kcal/mol
TAGAACACGTGGGAGT	0.04 kcal/mol
GTTTTCACGTGAGGTA	0.35 kcal/mol
GATGTCACGTGATATA	0.36 kcal/mol
AGGGGCACGTGTCCGG	-0.1 kcal/mol
TATTTCACGTGAATGG	0.41 kcal/mol
GTTAGCACGTGGCGTT	-0.1 kcal/mol
ATTTGCACGTGCGTAG	0.05 kcal/mol
